# Experimental data reported in the supplement of paper PMC8728848.
# Some of the results follow.
# B1: Gal 4 (Canis lupus) (protein)
# chain: MAYVPAPGYQPTYNPTLPYNKPIPGGLSVGMSVYIQGITSEHMRRFCVNFVAGAHPGSDIAFHFNPRFDGWDKVVFNSHLGGKWGSEEKKRSMPFRKGTHFELVFMVLAEHYKVVVNGNPFYEFGHRLPLQLVTHLQVEGDVELQSINFIGGTQPLGQGPGHTQQQPSSLPTMEGPPVFNPPVPFRKRLQGGLTVRRTVIIKGFVPFTSKSFVINFMVESSGDLALHINPRLTEGLVVRNSCLNGSWGSEDRKLSYNPFIPGQFFDLSIRCGMDRFKVYANGQHLFDFSHRLLALQNVDMLEINGDVTLSYIQV
# What was measured:
# Assay in all cases: glycan array binding signal (z-score within array); higher = stronger binding
# Conditions in all cases: glycan notation: IUPAC condensed, linker removed
# [1] = biological target: Gal(b1-4)GlcNAc(b1-6)[Gal(b1-3)]GalNAc
# In short: (§1)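 Glycan array binding is given as a within-array Z-score, which can be read as non-binding when negative. The arrays, 3228 of them, came from the Consortium for Functional Glycomics database and were retained only where the protein sequence was available. Z-scores were averaged across arrays of the same protein sequence at different concentrations or buffers and across linkers.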
# [2] = biological target: Gal(b1-6)Gal
# In short: as §1
# [3] = biological target: Gal3S(b1-3)GalNAc
# In short: as §1
# [4] = biological target: Gal3S(b1-3)GlcNAc
# In short: as §1
# [5] = biological target: Gal3S(b1-3)[Fuc(a1-4)]GlcNAc
# In short: as §1
# [6] = biological target: Gal3S(b1-4)Glc
# In short: as §1
# [7] = biological target: Gal3S(b1-4)Glc6S
# In short: as §1
# [8] = biological target: Gal3S(b1-4)GlcNAc
# In short: as §1
# [9] = biological target: Gal3S(b1-4)GlcNAc6S
# In short: as §1
# [10] = biological target: Gal3S(b1-4)[Fuc(a1-3)]Glc
# In short: as §1
# [11] = biological target: Gal3S(b1-4)[Fuc(a1-3)]Glc6S
# In short: as §1
# [12] = biological target: Gal3S4S(b1-4)GlcNAc
# In short: as §1
# [13] = biological target: Gal3S6S(b1-4)GlcNAc
# In short: as §1
# [14] = biological target: Gal3S6S(b1-4)GlcNAc6S
# In short: as §1
# [15] = biological target: Gal4S(b1-4)GlcNAc
# In short: as §1
# [16] = biological target: Gal4S6S(b1-4)GlcNAc
# In short: as §1
# [17] = biological target: Gal6S(b1-3)GlcNAc
# In short: as §1
# [18] = biological target: Gal6S(b1-3)GlcNAc6S
# In short: as §1
# [19] = biological target: Gal6S(b1-4)Glc
# In short: as §1
# [20] = biological target: Gal6S(b1-4)Glc6S
# In short: as §1
# [21] = biological target: Gal6S(b1-4)GlcNAc
# In short: as §1
# [22] = biological target: Gal6S(b1-4)GlcNAc6S
# In short: as §1
# [23] = biological target: GalNAc(a1-3)Gal
# In short: as §1
# [24] = biological target: GalNAc(a1-3)GalNAc
# In short: as §1
# [25] = biological target: GalNAc(a1-3)GalNAc(a1-3)Gal(a1-4)Gal(b1-4)GlcNAc
# In short: as §1
# [26] = biological target: GalNAc(a1-3)GalNAc(b1-3)Gal(a1-4)Gal(b1-4)Glc
# In short: as §1
# [27] = biological target: GalNAc(b1-3)Gal
# In short: as §1
# [28] = biological target: GalNAc(b1-3)Gal(a1-4)Gal(b1-4)GlcNAc
# In short: as §1
# [29] = biological target: GalNAc(b1-3)Gal(a1-4)Gal(b1-4)GlcNAc(b1-3)Gal(b1-4)Glc
# In short: as §1
# [30] = biological target: GalNAc(b1-3)Gal(a1-6)Gal(b1-4)Glc
# In short: as §1
# [31] = biological target: GalNAc(b1-3)GalNAc
# In short: as §1
# [32] = biological target: GalNAc(b1-4)GlcNAc
# In short: as §1
# [33] = biological target: GalNAc(b1-4)GlcNAc(b1-2)Man(a1-3)[GalNAc(b1-4)GlcNAc(b1-2)Man(a1-6)]Man(b1-4)GlcNAc(b1-4)GlcNAc
# In short: as §1
# [34] = biological target: GalNAc(b1-6)GalNAc
# In short: as §1
# [35] = biological target: Glc(a1-4)Glc
# In short: as §1
# [36] = biological target: Glc(a1-6)Glc(a1-6)Glc
# In short: as §1
# [37] = biological target: Glc(b1-4)Glc
# In short: as §1
# [38] = biological target: Glc(b1-6)Glc
# In short: as §1
# [39] = biological target: GlcA(b1-3)Gal
# In short: as §1
# [40] = biological target: GlcA(b1-3)GlcNAc
# In short: as §1
# [41] = biological target: GlcA(b1-6)Gal
# In short: as §1
# [42] = biological target: GlcNAc(a1-3)Gal(b1-4)GlcNAc
# In short: as §1
# [43] = biological target: GlcNAc(a1-4)Gal(b1-3)GlcNAc
# In short: as §1
# [44] = biological target: GlcNAc(a1-4)Gal(b1-4)GalNAc
# In short: as §1
# [45] = biological target: GlcNAc(a1-4)Gal(b1-4)GlcNAc
# In short: as §1
# [46] = biological target: GlcNAc(a1-4)Gal(b1-4)GlcNAc(b1-3)Gal(b1-4)Glc
# In short: as §1
# [47] = biological target: GlcNAc(a1-4)Gal(b1-4)GlcNAc(b1-3)Gal(b1-4)GlcNAc
# In short: as §1
# [48] = biological target: GlcNAc(a1-4)Gal(b1-4)GlcNAc(b1-3)Gal(b1-4)GlcNAc(b1-3)Gal(b1-4)GlcNAc
# In short: as §1
# [49] = biological target: GlcNAc(a1-4)Gal(b1-4)GlcNAc(b1-3)Gal(b1-4)[Fuc(a1-3)]GlcNAc(b1-3)Gal(b1-4)[Fuc(a1-3)]GlcNAc
# In short: as §1
# [50] = biological target: GlcNAc(a1-6)Gal(b1-4)GlcNAc
# In short: as §1
# [51] = biological target: GlcNAc(b1-2)Gal(b1-3)GalNAc
# In short: as §1
# [52] = biological target: GlcNAc(b1-2)Man(a1-3)[GlcNAc(b1-2)Man(a1-6)]Man(b1-4)GlcNAc(b1-4)GlcNAc
# In short: as §1
# [53] = biological target: GlcNAc(b1-2)Man(a1-3)[GlcNAc(b1-2)Man(a1-6)]Man(b1-4)GlcNAc(b1-4)[Fuc(a1-6)]GlcNAc
# In short: as §1
# [54] = biological target: GlcNAc(b1-2)Man(a1-3)[GlcNAc(b1-4)][GlcNAc(b1-2)Man(a1-6)]Man(b1-4)GlcNAc(b1-4)GlcNAc
# In short: as §1
# [55] = biological target: GlcNAc(b1-2)[GlcNAc(b1-4)]Man(a1-3)[GlcNAc(b1-2)Man(a1-6)]Man(b1-4)GlcNAc(b1-4)GlcNAc
# In short: as §1
# [56] = biological target: GlcNAc(b1-2)[GlcNAc(b1-4)]Man(a1-3)[GlcNAc(b1-4)][GlcNAc(b1-2)Man(a1-6)]Man(b1-4)GlcNAc(b1-4)GlcNAc
# In short: as §1
# [57] = biological target: GlcNAc(b1-2)[GlcNAc(b1-4)]Man(a1-3)[GlcNAc(b1-4)][GlcNAc(b1-2)[GlcNAc(b1-6)]Man(a1-6)]Man(b1-4)GlcNAc(b1-4)GlcNAc
# In short: as §1
# [58] = biological target: GlcNAc(b1-2)[GlcNAc(b1-6)]Man(a1-6)[GlcNAc(b1-2)Man(a1-3)]Man(b1-4)GlcNAc(b1-4)GlcNAc
# In short: as §1
# [59] = biological target: GlcNAc(b1-2)[GlcNAc(b1-6)]Man(a1-6)[GlcNAc(b1-2)Man(a1-3)][GlcNAc(b1-4)]Man(b1-4)GlcNAc(b1-4)GlcNAc
# In short: as §1
# [60] = biological target: GlcNAc(b1-3)Gal
# In short: as §1
# [61] = biological target: GlcNAc(b1-3)Gal(b1-3)GalNAc
# In short: as §1
# [62] = biological target: GlcNAc(b1-3)Gal(b1-4)Glc
# In short: as §1
# [63] = biological target: GlcNAc(b1-3)Gal(b1-4)GlcNAc
# In short: as §1
# [64] = biological target: GlcNAc(b1-3)Gal(b1-4)GlcNAc(b1-3)Gal(b1-4)GlcNAc
# In short: as §1
# [65] = biological target: GlcNAc(b1-3)GalNAc
# In short: as §1
# [66] = biological target: GlcNAc(b1-3)Man
# In short: as §1
# [67] = biological target: GlcNAc(b1-3)[GlcNAc(b1-4)][GlcNAc(b1-6)]GlcNAc
# In short: as §1
# [68] = biological target: GlcNAc(b1-3)[GlcNAc(b1-6)]Gal(b1-4)GlcNAc
# In short: as §1
# [69] = biological target: GlcNAc(b1-3)[GlcNAc(b1-6)]GalNAc
# In short: as §1
# [70] = biological target: GlcNAc(b1-4)Gal(b1-4)GlcNAc
# In short: as §1
# [71] = biological target: GlcNAc(b1-4)GlcNAc
# In short: as §1
# [72] = biological target: GlcNAc(b1-4)GlcNAc(b1-4)GlcNAc
# In short: as §1
# [73] = biological target: GlcNAc(b1-4)GlcNAc(b1-4)GlcNAc(b1-4)GlcNAc(b1-4)GlcNAc
# In short: as §1
# [74] = biological target: GlcNAc(b1-4)GlcNAc(b1-4)GlcNAc(b1-4)GlcNAc(b1-4)GlcNAc(b1-4)GlcNAc
# In short: as §1
# [75] = biological target: GlcNAc(b1-4)[GlcNAc(b1-6)]GalNAc
# In short: as §1
binder,measurement,setting,value
B1,glycan array binding signal (z-score),[1],-0.146
same,glycan array binding signal (z-score),[2],-0.147
same,glycan array binding signal (z-score),[3],-0.122
same,glycan array binding signal (z-score),[4],-0.111
same,glycan array binding signal (z-score),[5],-0.149
same,glycan array binding signal (z-score),[6],-0.133
same,glycan array binding signal (z-score),[7],0.538
same,glycan array binding signal (z-score),[8],-0.15
same,glycan array binding signal (z-score),[9],-0.102
same,glycan array binding signal (z-score),[10],-0.149
same,glycan array binding signal (z-score),[11],-0.137
same,glycan array binding signal (z-score),[12],-0.152
same,glycan array binding signal (z-score),[13],-0.153
same,glycan array binding signal (z-score),[14],-0.153
same,glycan array binding signal (z-score),[15],-0.144
same,glycan array binding signal (z-score),[16],-0.144
same,glycan array binding signal (z-score),[17],-0.135
same,glycan array binding signal (z-score),[18],-0.133
same,glycan array binding signal (z-score),[19],-0.149
same,glycan array binding signal (z-score),[20],-0.148
same,glycan array binding signal (z-score),[21],-0.157
same,glycan array binding signal (z-score),[22],-0.154
same,glycan array binding signal (z-score),[23],-0.137
same,glycan array binding signal (z-score),[24],-0.135
same,glycan array binding signal (z-score),[25],-0.14
same,glycan array binding signal (z-score),[26],-0.139
same,glycan array binding signal (z-score),[27],-0.15
same,glycan array binding signal (z-score),[28],-0.144
same,glycan array binding signal (z-score),[29],-0.147
same,glycan array binding signal (z-score),[30],-0.154
same,glycan array binding signal (z-score),[31],-0.146
same,glycan array binding signal (z-score),[32],-0.145
same,glycan array binding signal (z-score),[33],-0.13
same,glycan array binding signal (z-score),[34],-0.144
same,glycan array binding signal (z-score),[35],-0.152
same,glycan array binding signal (z-score),[36],-0.139
same,glycan array binding signal (z-score),[37],-0.146
same,glycan array binding signal (z-score),[38],-0.149
same,glycan array binding signal (z-score),[39],-0.149
same,glycan array binding signal (z-score),[40],0.144
same,glycan array binding signal (z-score),[41],-0.15
same,glycan array binding signal (z-score),[42],-0.145
same,glycan array binding signal (z-score),[43],-0.143
same,glycan array binding signal (z-score),[44],-0.148
same,glycan array binding signal (z-score),[45],-0.147
same,glycan array binding signal (z-score),[46],-0.147
same,glycan array binding signal (z-score),[47],-0.138
same,glycan array binding signal (z-score),[48],-0.145
same,glycan array binding signal (z-score),[49],-0.128
same,glycan array binding signal (z-score),[50],-0.139
same,glycan array binding signal (z-score),[51],-0.123
same,glycan array binding signal (z-score),[52],-0.145
same,glycan array binding signal (z-score),[53],-0.131
same,glycan array binding signal (z-score),[54],-0.148
same,glycan array binding signal (z-score),[55],-0.153
same,glycan array binding signal (z-score),[56],-0.157
same,glycan array binding signal (z-score),[57],-0.156
same,glycan array binding signal (z-score),[58],-0.148
same,glycan array binding signal (z-score),[59],-0.148
same,glycan array binding signal (z-score),[60],-0.149
same,glycan array binding signal (z-score),[61],-0.147
same,glycan array binding signal (z-score),[62],-0.15
same,glycan array binding signal (z-score),[63],-0.152
same,glycan array binding signal (z-score),[64],-0.154
same,glycan array binding signal (z-score),[65],-0.148
same,glycan array binding signal (z-score),[66],-0.149
same,glycan array binding signal (z-score),[67],-0.149
same,glycan array binding signal (z-score),[68],-0.149
same,glycan array binding signal (z-score),[69],-0.157
same,glycan array binding signal (z-score),[70],-0.138
same,glycan array binding signal (z-score),[71],-0.146
same,glycan array binding signal (z-score),[72],-0.145
same,glycan array binding signal (z-score),[73],-0.151
same,glycan array binding signal (z-score),[74],-0.145
same,glycan array binding signal (z-score),[75],-0.147
